Test results from publication PMC4336329 (PLoS ONE, 2015).
Among all 310,000 compounds or so, about 2,200 (0.71%) showed an effect of 50% or more. The effect is printed as a negative number. The list shows a part of the results.

Biological target: human ether-à-go-go-related gene (hERG) potassium channel (human, UniProt Q12809)
Assay: primary screen, population patch clamp on CHO cells stably expressing hERG

human ether-à-go-go-related gene (hERG) potassium channel, sequence (Q12809 whole entry, looked up): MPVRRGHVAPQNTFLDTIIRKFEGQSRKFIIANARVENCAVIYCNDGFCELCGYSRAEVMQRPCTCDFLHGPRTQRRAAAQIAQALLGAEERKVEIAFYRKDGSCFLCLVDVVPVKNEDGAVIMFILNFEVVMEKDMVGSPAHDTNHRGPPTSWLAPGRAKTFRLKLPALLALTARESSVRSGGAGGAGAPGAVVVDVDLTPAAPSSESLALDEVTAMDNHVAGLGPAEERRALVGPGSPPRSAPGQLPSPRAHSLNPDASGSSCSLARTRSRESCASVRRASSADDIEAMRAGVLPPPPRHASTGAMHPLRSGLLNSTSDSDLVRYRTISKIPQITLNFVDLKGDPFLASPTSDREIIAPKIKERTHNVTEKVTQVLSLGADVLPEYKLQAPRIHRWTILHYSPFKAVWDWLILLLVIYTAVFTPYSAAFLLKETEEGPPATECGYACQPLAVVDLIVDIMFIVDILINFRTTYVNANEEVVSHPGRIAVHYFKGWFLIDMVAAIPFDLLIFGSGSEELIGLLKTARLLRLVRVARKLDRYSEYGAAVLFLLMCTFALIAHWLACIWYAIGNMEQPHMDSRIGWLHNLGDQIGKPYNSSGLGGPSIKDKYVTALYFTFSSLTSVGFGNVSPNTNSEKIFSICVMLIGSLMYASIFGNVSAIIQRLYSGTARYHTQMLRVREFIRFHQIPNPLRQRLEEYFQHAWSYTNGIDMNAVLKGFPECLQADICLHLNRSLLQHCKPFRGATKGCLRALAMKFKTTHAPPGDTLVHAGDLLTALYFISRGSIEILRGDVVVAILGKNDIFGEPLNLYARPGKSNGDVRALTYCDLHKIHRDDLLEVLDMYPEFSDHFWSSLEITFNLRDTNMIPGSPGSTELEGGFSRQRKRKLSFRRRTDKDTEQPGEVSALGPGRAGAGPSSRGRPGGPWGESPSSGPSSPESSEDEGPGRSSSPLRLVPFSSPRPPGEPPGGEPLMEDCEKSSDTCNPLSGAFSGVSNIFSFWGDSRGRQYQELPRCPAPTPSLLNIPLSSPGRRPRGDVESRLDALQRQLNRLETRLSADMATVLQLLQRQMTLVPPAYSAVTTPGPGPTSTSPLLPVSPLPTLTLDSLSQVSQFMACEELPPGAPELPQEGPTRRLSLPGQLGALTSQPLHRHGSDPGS

Compound	hERG current change (%, negative = inhibition) at 1uM [%]
COc1ccc(-c2csc(NC(=O)c3ccco3)n2)cc1.Cl	3.82
COc1ccc(Cl)cc1C(=O)Nc1ccc(NC(=O)c2ccco2)cc1	14.5
CNC(=O)NC(O)C(Cl)(Cl)Cl (stereo not drawn)	20.7
Cc1ncc(CO)c(/C=N/Nc2ccc(C(F)(F)F)cn2)c1O	8.09
Cn1ncc2c(NCc3ccccc3)nc(NCCCO)nc21	10.9
O=S(=O)(Cc1nnnn1-c1ccccc1)c1ccc(F)cc1	0.494
Clc1ccc(-n2nnnc2Sc2ncnc3sccc23)cc1	10.9
Cc1ccsc1CNC12CC3CC(CC(C3)C1)C2.Cl	14.4
Cc1c(C(=O)N2CCN(C(c3ccccc3)c3ccccc3)CC2)oc2ccccc12	15.8
Cc1ccc(Nc2nc(Cl)c(C=O)s2)cc1	-10.9
O=C(c1ccccc1)c1ccc(Oc2ccc(C(=O)O)c(C(=O)O)c2)cc1	11.9
Cc1cc(C)nc(SCC(=O)NN)n1	12.7
Cc1cccc(NC2SC(=O)NC2=O)c1 (stereo not drawn)	6.83
CCOCCCNCc1ccc(OC)c(OC)c1.O=C(O)C(=O)O	8.45
O=C(CN1C(=O)NC2(CCCC2)C1=O)Nc1cc(C(F)(F)F)ccc1N1CCCCC1	7.93
C=CCNC(=O)c1ccc(C2SCC(=O)N2Cc2ccco2)cc1 (stereo not drawn)	-4.36
N#CCn1cc(/C=N/NC(=O)c2cc3c(ccc4ccccc43)o2)c2ccccc21	11.3
O=C(NCc1ccc(Cl)cc1)c1cnccn1	6.08
CCOc1ccccc1N1CCN(S(=O)(=O)c2cccc3nsnc23)CC1	-10.2
O=C1CN(C(=O)COC(=O)c2ccc[n+]([O-])c2)c2ccccc2N1	13
Cc1cccc(Nc2ccc([N+](=O)[O-])cn2)c1	7.32
NC(=O)c1ccccc1OCC(=O)Nc1ccc(Cl)c(Cl)c1	7.8
CN(C)S(=O)(=O)c1ccc(C(=O)N2CCN(C(=O)C3CCCO3)CC2)cc1 (stereo not drawn)	9.98

Compound	hERG current change (%, negative = inhibition) at 1uM [%]
O=C(CSc1nnc(-c2ccncc2)n1Cc1ccco1)N1c2ccccc2Sc2ccc(Cl)cc21	8.3
CC(=O)NS(=O)(=O)c1ccc(NC(=O)CC23CC4CC(CC(Br)(C4)C2)C3)cc1	21.7
Cn1ncc(C(N)=O)c1NC(=S)NC(=O)c1ccc(Br)o1	14.3
COc1ccc(C(=O)N2CCC(C(=O)Nc3ccc(OC)c(OC)c3)CC2)cc1	10.7
CCOC(=O)C1=NNC2C(=O)N(Cc3ccccc3)C(=O)C12 (stereo not drawn)	8.04
CCN(CC)c1ccc(S(=O)(=O)N2CCOCC2)cc1NC(=O)CSc1ccccc1	10.5
O=C(c1cccc(Cl)c1)N1CCN(Cc2ccccc2F)CC1	14.6
CSc1ccc(S(=O)(=O)NCC(=O)OCC(=O)N2CCCC2=O)cc1[N+](=O)[O-]	1.29
O=C(O)CCCCCCCCc1cn(CN2C(=O)c3ccccc3C2=O)nn1	9.38
Nc1nc(-c2ccccc2)c(-c2ccccc2)o1	12
Cc1nn(-c2ccccc2)c(Cl)c1/C=N/Nc1nnc(C)c(=O)[nH]1	9.84
CCOC(=O)N1CCc2c(sc3[nH]c(=S)[nH]c(=S)c23)C1	12.6
CCOc1ccc(OCC(=O)OCc2cc(=O)n3cc(Br)ccc3n2)cc1	8.5
CCOc1ccc(NC(=O)CSc2nnnn2C2CC2)cc1S(=O)(=O)N1CCCC1	5.29
COc1ccccc1Cn1c(-c2ccccc2OC)nc2ccccc21	9.13
O=C(Nc1ccc(F)cc1)c1cccc(N2C(=O)C3C4C=CC(C5CC45)C3C2=O)c1 (stereo not drawn)	4.83
CCOC(=O)c1c(-c2cccs2)csc1NC(=O)CSc1ncn[nH]1	10.2
O=C(NCC1CCCO1)c1nn2c(C(F)(F)F)cc(-c3ccc(Br)o3)nc2c1Br (stereo not drawn)	2.69
Cc1ccc(CNC(=O)c2ccccc2NC(=O)CN2CCN(C)CC2)cc1	-24.7
O=C(Nc1ccc(OC(F)F)c(Cl)c1)c1cccc(OC(F)F)c1	-31.6
CN(C(=O)COC(=O)c1ccccc1Cc1ccccc1)c1c(N)n(Cc2ccccc2)c(=O)[nH]c1=O	18.1
O=C1CCSc2ccc(Cl)cc2N1Cc1ccc(Cl)cc1	9.72
